Assay results from PubChem BioAssay (NCATS).
“And” between values parts separate entries of the source, which are not always exact repeats. Equal entries are not always repeated. Inconclusive results, whose numbers are uncertain, are shown with a selection of clear calls. For some of these results: Potencies beside an inconclusive call are fits to weak or partial responses and may not hold up. For some of these results: A note “side channel” means that the fit belongs to a control or component signal, not to the main read-out. The source made the active and inactive calls. Unless noted, the call rests on the fitted dose curve; in most records, active means well fitted curve in the direction sought with a large enough effect; inconclusive means small, poorly fitted or top-dose-only effect, or another doubt; inactive means no such curve, though single readings can be large; an effect the other way counts as inactive or inconclusive.

Tests used:
[1] = qHTS assay to identify small molecule inhibitors of chordoma cells - UCH-1 (AID 1259355); further: nearly all actives have a fitted effect of over 55% in size; on Potency: series mostly up to about 46 µM
Summary of the method: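 Seed 800 cells per well; incubate overnight at 37 C, 5% CO2. Add test compounds (15 concentrations), then the auranofin–topoisomerase-agent combination. Incubate 48hr, add CellTiter-Glo, wait 30min, read luminescence.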

[2] = P-glycoprotein substrates identified in KB-8-5-11 adenocarcinoma cell line, qHTS therapeutic library screen (AID 1346987); further: nearly all actives have a fitted effect of over 65% in size
Summary of the method: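 Steps: plate 500 KB-8-5-11 cells/well in DMEM + 10% FCS (colchicine removed); pin compounds in dose-response; incubate 72 h, 37 degree C, 5% CO2; add CellTiter-Glo, 5 min; read luminescence.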

[3] = Natriuretic polypeptide receptor (hNpr1) antagonism - Pilot counterscreen GloSensor control cell line (AID 1347045; calls by dose curve)
Summary of the method: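 Luminescence was read before and 20 min after adding 50 uM SNP, which stimulates soluble guanylyl cyclase. The HEK293 cells expressing the GloSensor cGMP sensor had been preloaded with 2% reagent for 2 h and treated with compound.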

[4] = molecular target: Atrial natriuretic peptide receptor 1 (Homo sapiens) (UniProt P16066); assay: Natriuretic polypeptide receptor (hNpr1) antagonism - Pilot screen (AID 1347049; calls by dose curve;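 further: agonist-evoked cGMP luminescence read 20 min after hNppA addition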)
Chain of UniProt P16066 (P16066 whole entry, looked up): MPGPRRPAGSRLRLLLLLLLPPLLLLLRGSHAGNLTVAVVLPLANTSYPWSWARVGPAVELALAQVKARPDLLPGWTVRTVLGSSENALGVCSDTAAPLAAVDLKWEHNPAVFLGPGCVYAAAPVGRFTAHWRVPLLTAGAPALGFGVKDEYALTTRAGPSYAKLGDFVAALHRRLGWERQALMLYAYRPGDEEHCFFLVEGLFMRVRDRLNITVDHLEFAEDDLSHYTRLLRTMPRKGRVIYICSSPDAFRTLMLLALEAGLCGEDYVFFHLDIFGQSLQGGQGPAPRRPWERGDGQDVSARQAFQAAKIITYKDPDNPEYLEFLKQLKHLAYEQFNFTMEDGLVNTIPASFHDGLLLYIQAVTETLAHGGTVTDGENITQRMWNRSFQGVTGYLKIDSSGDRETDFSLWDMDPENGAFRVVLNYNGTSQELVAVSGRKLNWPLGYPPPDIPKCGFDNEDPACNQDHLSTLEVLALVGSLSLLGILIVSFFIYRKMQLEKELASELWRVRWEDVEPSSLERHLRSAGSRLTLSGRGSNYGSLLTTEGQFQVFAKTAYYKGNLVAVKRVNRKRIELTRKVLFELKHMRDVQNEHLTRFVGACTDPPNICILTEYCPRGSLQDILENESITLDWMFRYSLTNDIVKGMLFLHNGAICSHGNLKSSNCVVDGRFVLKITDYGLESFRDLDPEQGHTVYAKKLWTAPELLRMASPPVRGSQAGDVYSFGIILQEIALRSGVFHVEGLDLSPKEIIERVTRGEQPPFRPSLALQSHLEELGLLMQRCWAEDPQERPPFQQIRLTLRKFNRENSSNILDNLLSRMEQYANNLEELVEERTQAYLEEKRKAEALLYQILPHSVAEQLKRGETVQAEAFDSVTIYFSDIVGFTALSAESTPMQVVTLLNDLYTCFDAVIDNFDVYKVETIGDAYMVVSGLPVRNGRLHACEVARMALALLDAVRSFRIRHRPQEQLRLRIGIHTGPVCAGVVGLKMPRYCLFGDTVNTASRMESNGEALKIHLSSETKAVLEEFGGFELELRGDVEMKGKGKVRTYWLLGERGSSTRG
Summary of the method: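 Readout is cGMP-driven firefly luciferase luminescence in HEK293 cells carrying hNpr1 and a PDE5-domain GloSensor, read before and 20 min after 0.1 nM hNppA stimulation. Cells had 2% substrate reagent for 2 h and test compound for 30 min.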

[5] = NS1 protein of Zika virus - qHTS assay to identify small molecule inhibitors in human HEK 293 cells (AID 1347053); further: nearly all actives have a fitted effect of over 55% in size
Summary of the method: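 Inhibition of NS1 expression was scored in HEK 293 cells given compound 1 h ahead of MR766 virus (MOI = 0.5). Following 24 h at 37 C, two anti-NS1 antibodies generated a TR-FRET signal, scaled between uninfected and infected controls.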

[6] = molecular target: T1, Tyrosine-protein phosphatase non-receptor type substrate 1 (Homo sapiens) + Leukocyte surface antigen CD47 (Homo sapiens) (UniProt P78324+Q08722); assay: CD47-SIRPalpha protein protein interaction - LANCE assay qHTS validation (AID 1347057; active means well fitted curve in the direction sought with a large enough effect in the signal ratio, with a control signal flat, not every such curve was filed as active; inconclusive means small, poorly fitted or top-dose-only effect, or effect the other way, or a change in a side signal; inactive means no such curve, though single readings can be large or run the other way; the % refers to the signal ratio)
T1 sequence (P78324 whole entry, looked up): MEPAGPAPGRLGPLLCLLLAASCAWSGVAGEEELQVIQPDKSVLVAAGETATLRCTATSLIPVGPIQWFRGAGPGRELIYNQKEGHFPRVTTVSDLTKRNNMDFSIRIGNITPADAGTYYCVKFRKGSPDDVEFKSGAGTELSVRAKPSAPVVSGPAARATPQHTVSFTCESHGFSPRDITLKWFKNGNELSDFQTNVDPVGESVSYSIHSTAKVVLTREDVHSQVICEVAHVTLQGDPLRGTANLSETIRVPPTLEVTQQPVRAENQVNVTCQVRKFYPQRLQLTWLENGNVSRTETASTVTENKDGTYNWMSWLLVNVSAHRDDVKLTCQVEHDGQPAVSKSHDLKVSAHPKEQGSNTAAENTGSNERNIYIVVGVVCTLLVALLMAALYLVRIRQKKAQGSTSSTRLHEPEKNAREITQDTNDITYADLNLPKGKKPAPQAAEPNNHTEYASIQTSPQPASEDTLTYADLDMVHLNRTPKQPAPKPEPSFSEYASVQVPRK
T1 sequence (Q08722 whole entry, looked up): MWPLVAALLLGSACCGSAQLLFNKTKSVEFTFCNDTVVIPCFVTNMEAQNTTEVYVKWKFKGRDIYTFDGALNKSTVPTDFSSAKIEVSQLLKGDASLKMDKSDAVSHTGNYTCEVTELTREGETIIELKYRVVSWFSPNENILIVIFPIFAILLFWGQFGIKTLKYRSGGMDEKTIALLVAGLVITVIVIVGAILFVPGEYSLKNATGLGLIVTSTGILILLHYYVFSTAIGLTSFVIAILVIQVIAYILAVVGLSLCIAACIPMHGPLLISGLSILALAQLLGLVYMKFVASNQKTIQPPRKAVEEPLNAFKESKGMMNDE
Summary of the method: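 First, His-tagged CD47 and Eu-labelled anti-His antibody met the compound for 30 min; next, site-specifically biotinylated SIRPalpha was added for 30 min; finally streptavidin-APC was added before reading the TR-FRET ratio.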

[7] = molecular target: T1, Tyrosine-protein phosphatase non-receptor type substrate 1 (Homo sapiens) + Leukocyte surface antigen CD47 (Homo sapiens); assay: CD47-SIRPalpha protein protein interaction - HTRF assay qHTS validation (AID 1347058; active means well fitted curve in the direction sought with a large enough effect in the signal ratio, not every such curve was filed as active; inconclusive means small, poorly fitted or top-dose-only effect, or effect the other way, or a change in a side signal; inactive means no such curve, though single readings can be large or run the other way; the % refers to the signal ratio)
Summary of the method: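 TR-FRET read (Ch1/Ch2 ratio) of soluble extracellular CD47 and Avi-biotinylated SIRPalpha domains in PBS pH 7.4 with 0.05% IGEPAL; 7-point compound titration. Sequential 30 min room-temperature steps; non-biotinylated SIRPalpha as control inhibitor.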
Potency means the concentration at half of the fitted maximal effect; tags describe the fitted curve by direction and shape.

**Q.** Which Potency [1] does the source give for `CCN(CC)CCOCCOC(=O)C(CC)(CC)c1ccccc1` here?
**A.** inactive

**Q.** And the Potency [2]?
**A.** inconclusive: 6.51 µM [inhibitor, partial curve] and inconclusive: 29.1 µM [inhibitor, single point]

**Q.** What does the source list for `COc1c(C)c2c(c(O)c1C/C=C(\C)CCC(=O)O)C(=O)OC2`?
**A.** Potency [1]: inconclusive: 1.78 µM [cytotoxic, partial curve, poor fit]; Potency [2]: inconclusive: 3.5 µM [inhibitor, partial curve]

**Q.** For `C=CCc1ccc(O)c(OC)c1`, which Potency [1] is on record?
**A.** inconclusive: 0.0035 µM [cytotoxic, full curve, poor fit]

**Q.** What about the Potency [2] of the same compound?
**A.** inactive

**Q.** Which Potency [1] does the source give for `C[C@]12O[C@H](C[C@]1(O)CO)n1c3ccccc3c3c4c(c5c6ccccc6n2c5c31)CNC4=O` here?
**A.** active: 11.2 µM

**Q.** And the Potency [2]?
**A.** active: 4.61 µM

**Q.** With `C=CC1=C(C)C2=CC3=NC(=C(CC(=O)[O-])C4=NC(=C(C)C4=C([O-])[O-])C=c4[n-]c(c(C)c4CC)=CC1=N2)C(CCC(=O)[O-])C3C.[Cu+2].[Na+].[Na+].[Na+]` (centres undefined) as the compound, how does the Potency [1] read?
**A.** inconclusive: 0.1 µM [cytotoxic, full curve, poor fit]

**Q.** And the Potency [2]?
**A.** inconclusive: 29.1 µM [inhibitor, single point]

**Q.** What does the source list for `CC(C)O`?
**A.** Potency [1]: inactive; Potency [2]: inactive

**Q.** Which results are given for `COC(=O)c1cccnc1`?
**A.** Potency [1]: inactive; Potency [2]: inactive

**Q.** With `CN(C)/N=N/c1nc[nH]c1C(N)=O` as the compound, how does the Potency [1] read?
**A.** inconclusive: 0.0028 µM [cytotoxic, full curve, poor fit]

**Q.** And the Potency [2]?
**A.** inconclusive: 13 µM [inhibitor, partial curve]

**Q.** For `CNC(=O)c1c(I)c(C(=O)NCC(=O)Nc2c(I)c(C(=O)O)c(I)c(C(=O)NCCO)c2I)c(I)c(N(C)C(C)=O)c1I`, which Potency [1] is on record?
**A.** inactive

**Q.** And the Potency [2]?
**A.** inactive

**Q.** Which results are given for `O=S(=O)(O)c1ccc2c(N=Nc3ccc(S(=O)(=O)O)c4ccccc34)c(O)c(S(=O)(=O)O)cc2c1`?
**A.** Potency [1]: inconclusive: 7.94 µM [cytotoxic, partial curve, poor fit]; Potency [2]: inconclusive: 16.4 µM [inhibitor, single point]

**Q.** With `NC(=Nc1ccccc1)Nc1ccccc1` as the compound, how does the Potency [1] read?
**A.** inconclusive: 31.6 µM [cytotoxic, partial curve, poor fit]

**Q.** What about the Potency [2] of the same compound?
**A.** inconclusive: 11.6 µM [inhibitor, partial curve, poor fit]

**Q.** Which results are given for `CCOc1ccc(NC(=O)CC(C)O)cc1` (centres undefined)?
**A.** Potency [1]: inconclusive: 0.0158 µM [cytotoxic, full curve, poor fit]; Potency [2]: inactive

**Q.** Which results are given for `C[C@H](CCC(=O)O)[C@H]1CC[C@H]2[C@@H]3[C@H](O)C[C@@H]4C[C@H](O)CC[C@]4(C)[C@H]3CC[C@]12C`?
**A.** Potency [1]: inconclusive: 5.62 µM [cytotoxic, partial curve, poor fit]; Potency [2]: inactive

**Q.** Which Potency [1] does the source give for `Oc1c(I)cc(I)c2cccnc12` here?
**A.** inconclusive: 0.708 µM [cytotoxic, full curve, poor fit]

**Q.** And the Potency [2]?
**A.** inconclusive: 2.59 µM [inhibitor, full curve]

**Q.** For `CCn1cc(C(=O)O)c(=O)c2cnc(N3CCCC3)nc21`, which Potency [1] is on record?
**A.** inconclusive: 3.98 µM [cytotoxic, single point]

**Q.** And the Potency [2]?
**A.** inactive

**Q.** What does the source list for `CC(C)(C)C(=O)OCOC(=O)[C@@H]1N2C(=O)[C@@H](NC(=O)[C@H](N)c3ccccc3)[C@H]2SC1(C)C`?
**A.** Potency [1]: inactive; Potency [2]: inactive

**Q.** What does the source list for `CCCCCCCCCCCCCCCCOCCOCCOCCOCCOCCOCCOCCOCCOCCOCCOCCOCCOCCOCCOCCOCCOCCOCCOCCOCCO`?
**A.** Potency [1]: active: 35.5 µM; Potency [2]: inconclusive: 4.61 µM [inhibitor, full curve]

**Q.** Which Potency [1] does the source give for `COC(=O)[C@@H]1CC2=CC(=O)CC[C@]2(C)[C@@]23O[C@@H]2C[C@@]2(C)[C@@H](CC[C@@]24CCC(=O)O4)[C@H]13` here?
**A.** inconclusive: 0.0079 µM [cytotoxic, full curve, poor fit]

**Q.** What about the Potency [2] of the same compound?
**A.** inactive

**Q.** For `CCC(=O)NCCC1CCc2ccc3c(c21)CCO3` (centres undefined), which Potency [1] is on record?
**A.** inconclusive: 4.47 µM [cytotoxic, full curve, poor fit]

**Q.** And the Potency [2]?
**A.** inconclusive: 29.1 µM [inhibitor, single point]

**Q.** With `O=C(Nc1ncc([N+](=O)[O-])s1)c1cccs1` as the compound, how does the Potency [1] read?
**A.** active: 14.1 µM

**Q.** What about the Potency [2] of the same compound?
**A.** active: 16.4 µM

**Q.** With `CC(C)=CCC1C(=O)N(c2ccccc2)N(c2ccccc2)C1=O` as the compound, how does the Potency [1] read?
**A.** inconclusive: 2.51 µM [cytotoxic, full curve, poor fit]

**Q.** What about the Potency [2] of the same compound?
**A.** inconclusive: 5.8 µM [inhibitor, partial curve]

**Q.** Which Potency [1] does the source give for `C[n+]1cc2c3c(ccc2c2ccc4cc5c(cc4c21)OCO5)OCO3` here?
**A.** active: 12.6 µM

**Q.** And the Potency [2]?
**A.** inconclusive: 23.1 µM [inhibitor, single point]

**Q.** And the Potency [3]?
**A.** active: 2.07 µM

**Q.** And the Potency [4]?
**A.** active: 4.78 µM

**Q.** What about the Potency [5] of the same compound?
**A.** inconclusive: 1.58 µM [inhibitor, full curve, poor fit] and inconclusive: 631 nM [inhibitor, full curve, poor fit]

**Q.** And the Potency [6]?
**A.** inconclusive: 18.5 µM [single point]

**Q.** And the Potency [7]?
**A.** inconclusive: 5.21 µM [side channel, falling, partial curve]
